Experimental findings from PubChem BioAssay AID1508624 (National Center for Advancing Translational Sciences (NCATS), 2021) are described below.

The whole screen tested about 48,000 compounds, of which about 120 (0.25%) were called active. Another 4% or so got no clear call; they are omitted. Calls follow the shape of the dose curve; as a rule, active = well fitted activation curve with a large enough effect; inconclusive = small, poorly fitted or top-dose-only effect, or another doubt; inactive = no such curve, though single readings can be large or run the other way. Some of the results follow.

The nature of the assay: Primary qHTS for Identification of Small Molecule Activators of Huntingtin-Antisense Promoter Activity. Also: nearly all actives have a fitted effect of over 55% in size. The note with it: HEK293 HTT-AS promoter firefly luciferase reporter (activity 0% = vehicle and -100% = no light), 24 h; series mostly up to 57.5 µM; activity change, positive = activation: at the top concentration. The procedure, abridged:
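Firefly luciferase readout (Dual-Glo, 10 min RT) after 24 h, 37 °C compound exposure (final up to 57.5 uM) of HEK293 reporter cells cultured 24 h beforehand; PTC124 at 50 uM final as control inhibitor; activity scaled vehicle 0%, zero RLU -100%.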
For the compound `COc1ccc(Cn2c(SCc3ccc(C(=O)NC4CCCCC4)cc3)nc3ccncc32)cc1`, the “activity change, positive = activation” value was inactive: -29.8%. Take `CCc1cccc(C)c1Nc1c(-c2ccc(F)cc2)nc2sccn12`: the “activity change, positive = activation” value is inactive: -19.2%. `CCOc1ccc(NC(=O)CSc2ncc(S(=O)(=O)c3ccc(F)c(C)c3)c(=O)[nH]2)cc1`: the “activity change, positive = activation” value was inactive: -9.23%. Take `Cc1ccc(CNc2nc(-c3ccco3)nn2C(=O)c2ccccc2[N+](=O)[O-])cc1`: the “activity change, positive = activation” value is inactive: 23.8%.

Regarding `CCc1ccc(C(c2ccccc2)c2c(C)[nH]c3ccccc23)s1` (stereo not given), the “activity change, positive = activation” value was inactive: -24.8%.

For `Cc1cc(C)c(NC(=O)CSc2nc3ccccc3c3nc(-c4ccccc4)nn23)c(C)c1`, the “activity change, positive = activation” value was inactive: 8.92%. The same measure for `Cc1cccc(CNC(=O)c2ccc3c(c2)N(C)CCS3)c1`: inactive: -11.2%; for `CC(C)(C)c1cc(C=O)cc(C(C)(C)C)c1O`: inactive: -1.07%; for `COc1ccc(NC(=O)Cn2c(=O)n(CCCC(=O)NCc3ccccc3Cl)c(=O)c3ccccc32)c(OC)c1`: inactive: -32%. Consider `Cc1ccccc1CNC(=O)Cn1nc(C)c2nn(-c3ccc(Cl)cc3)c(C)c2c1=O`, for which the “activity change, positive = activation” value is inactive: -36.3%. Regarding `CCOC(=O)c1sc2ccccc2c1S(=O)(=O)Nc1cc(OC)ccc1OC`, the “activity change, positive = activation” value is inactive: -17.9%. Regarding `COc1ccc(CNCc2c(C(=O)O)c(C)n(Cc3ccccc3C)c2C)cc1OC`, the “activity change, positive = activation” value was inactive: -5.48%. Consider `Cc1ccc(C)c(N2CCN(S(=O)(=O)c3ccc4[nH]c5c(c4c3)CCCC5)CC2)c1`, for which the “activity change, positive = activation” value is inactive: -23.4%. As to `COc1ccc(N2CCN(c3ncccc3-c3nc(-c4ccccc4C)no3)CC2)cc1`, the “activity change, positive = activation” value is inactive: -9.09%. As to `CCc1ccc(NC(=O)Cn2c(=O)c3cccn3c3ccccc32)cc1`, the “activity change, positive = activation” value was inactive: -43.6%. Regarding `CCc1cccc(C)c1NC(=O)CN1CCN(Cc2ccccc2Cl)S1(=O)=O`, the “activity change, positive = activation” value is inactive: -23.2%. The same measure for `O=C(Nc1ccc(-c2nc3cc(Cl)ccc3o2)cc1)c1cc(Br)ccc1Cl`: inactive: 5.69%; for `CCN(C(=O)CSc1nc2ccccc2c2nc(CCn3c(C)nc4ccccc43)nn12)c1cccc(C)c1`: inactive: -2.93%; for `COc1cc(C(=O)NC2(C(F)(F)F)C(=O)NC(C)=C2C#N)cc(OC)c1OC` (stereo not given): inactive: 4.64%. For the compound `CCN(CC)S(=O)(=O)c1ccc2c(c1)N(CC(=O)N1CCN(c3cccc(C)c3)C(C)C1)C(=O)CO2` (stereo not given), the “activity change, positive = activation” value was inactive: -18.2%. As for `Cc1cccc(NC(=O)CCn2cnnn2)c1`, the “activity change, positive = activation” value was inactive: -13.4%. The same measure for `COc1ccc(-c2csc3nc(-c4ccc(Cl)cc4)oc(=O)c23)cc1`: inactive: -0.671%. As to `CC(=O)c1ccc(N2CCN(C(=O)Nc3ccc(C)cc3)CC2)cc1`, the “activity change, positive = activation” value was inactive: -23.7%. The same measure for `Cc1ccc(Nc2c(-c3ccc(N4CCOCC4)cc3)nc3ccc(C)cn23)cc1`: inactive: -11.6%.

On to `Cn1c(=O)oc2cc(S(=O)(=O)NC(CC(=O)O)c3cccc(Br)c3)ccc21` (stereo not given), for which the “activity change, positive = activation” value is inactive: -6.03%.

As to `COc1ccc(NC(=O)CSc2nnc(N)s2)cc1`, the “activity change, positive = activation” value was inactive: 5.28%. As for `COc1ccc(N2CC(C(=O)NCCS(=O)(=O)N3CCN(c4ccccc4)CC3)CC2=O)cc1` (stereo not given), the “activity change, positive = activation” value was inactive: 10.5%. The same measure for `CC(C)OCCCNC(=O)c1cn(C)c2ccc(S(=O)(=O)N(C)C3CCCCC3)cc2c1=O`: inactive: -0.187%; for `O=C(CCCN1CCN(c2ccccn2)CC1)c1ccc(F)cc1`: inactive: -19.7%; for `COc1ccc(S(=O)(=O)N2CCC(Oc3cccc(C(F)(F)F)c3)CC2)cc1OC`: inactive: -5.38%.

Regarding `CCNc1cc(NC2CCC(O)CC2)nc(Nc2ccc3c(ccn3Cc3ccccc3)c2)n1` (stereo not given), the “activity change, positive = activation” value was inactive: -21.1%.

With `CCc1cccc(NC(=O)c2cnc(N3CCOCC3)c3ccccc23)c1`, the “activity change, positive = activation” value is inactive: -29.6%.

As for `Cc1c(C(=O)N2CCCC2)oc2c1-c1nn(CC(=O)NCc3ccc(OC(C)C)cc3)cc1CC2`, the “activity change, positive = activation” value was inactive: -44.9%. With `CN(CC(=O)Nc1ccc(OC(F)(F)F)cc1)S(=O)(=O)c1ccc2c(c1)CCC(=O)N2`, the “activity change, positive = activation” value is inactive: -34%.

`Cc1ccc2occ(-c3cc(-c4ccccc4)nc4c3COc3ccccc3-4)c(=O)c2c1`: the “activity change, positive = activation” value was inactive: -3.29%.

As for `CCOC(=O)c1cc(-c2ccccc2)n(CCCC(=O)Nc2ccc(C)c(Cl)c2)c1C`, the “activity change, positive = activation” value is inactive: -27.9%.

On to `Cc1ccc(C)c(NC(=O)CSc2nc3nccnc3c(=O)n2CCc2c[nH]c3ccccc23)c1`, for which the “activity change, positive = activation” value was inactive: -24.7%. With `Cc1ccc(-n2c(=O)c3c(C)c(C(=O)N(C)C)sc3n(CC(=O)N(C)c3ccccc3)c2=O)cc1C`, the “activity change, positive = activation” value was inactive: -6.95%. The same measure for `O=C(Nc1ccc(-c2cc(C(F)(F)F)nn2-c2ccccc2)cc1)c1cccc(F)c1`: inactive: -73%. The same measure for `CCN(CC)c1ccc(C(=O)NCc2ccc3c(c2)CCN3C(=O)c2ccccc2)cc1`: inactive: 12.2%; for `CCN1CCC(N(Cc2cccc(OC)c2)C(=O)Nc2cccc(C(F)(F)F)c2)CC1`: inactive: -13.9%; for `Cc1ccc2c(c1)N(C(=O)CCC(=O)Nc1ccccc1Cl)CC(C)O2` (stereo not given): inactive: -1.35%. Consider `O=c1cc(CSc2ncn[nH]2)[nH]c2c(Cl)cccc12`, for which the “activity change, positive = activation” value is inactive: 1.61%. Regarding `COc1ccc(OC)c(Nc2nc(-c3ccc(C)cc3)nc3ccccc23)c1`, the “activity change, positive = activation” value is inactive: -4.05%. Take `CCOC(=O)c1c(C)[nH]c(C)c1S(=O)(=O)NCC(=O)Nc1cccc(C(F)(F)F)c1`: the “activity change, positive = activation” value is inactive: -3.02%. `CCOc1ccc(C2c3c(-c4ccc(C)cc4)n[nH]c3C(=O)N2c2ccc(Cl)cc2)cc1` (stereo not given): the “activity change, positive = activation” value is inactive: -55.3%. Turning to `CC1CCCN(C(=O)Cn2c(=O)oc3cc(S(=O)(=O)N4CCCCC4)ccc32)C1` (stereo not given), the “activity change, positive = activation” value is inactive: 3.45%. Under `Cc1ccc(F)c(NC(=O)Nc2ccc(-c3cccc4[nH]nc(N)c34)cc2)c1` stands inactive: -1.06%; under `Cc1cccc(NC(=O)NCCn2c(=O)oc3ccc(C)cc32)c1`, inactive: -9.71%; under `Cc1oc2c(c1C(=O)NCc1cccc(Br)c1)C1=NCCN1C=N2`, inactive: -6.91%. `CCOC(=O)Cn1c(=O)n(CC2CCCO2)c2nc(-c3ccc(OC)cc3OC)nc(C(N)=O)c21` (stereo not given): the “activity change, positive = activation” value was inactive: -7.97%. With `Cc1ccc(CNC(=O)CCCn2c(=O)c3ccccc3n(CC(=O)C(C)(C)C)c2=O)cc1`, the “activity change, positive = activation” value was inactive: -22.2%. The same measure for `COc1cc(NC(=O)C(CC(C)C)NS(=O)(=O)c2ccc3c(c2)CCCC(=O)N3)cc(OC)c1` (stereo not given): inactive: -9.68%; for `COc1ccc(CNC(=O)CN(c2ccc(C)cc2)S(=O)(=O)c2c(C)n[nH]c2C)cc1`: inactive: -5.36%; for `COc1ccc2oc(=O)c(-c3csc(/C(C#N)=C/c4ccc(F)cc4)n3)cc2c1`: inactive: 1.77%.

As for `COc1ccc(CNC(=O)c2cc3c(-c4ccccc4F)nn(C)c3s2)c(OC)c1`, the “activity change, positive = activation” value was inactive: -49.9%. `COc1ccccc1N1CCN(C(=O)C2CCN(S(=O)(=O)c3cnc[nH]3)CC2)CC1`: the “activity change, positive = activation” value was inactive: 8.32%. As to `CCOc1ccc(NC(=O)Cn2c(=O)n(-c3ccc(C)cc3)c(=O)c3cc(OC)c(OC)cc32)cc1`, the “activity change, positive = activation” value is inactive: -3.23%. Turning to `Cc1ccc(C)c(N2CCN(C(=O)c3cnc4c(-c5ccccc5)c(C)nn4c3C)CC2)c1`, the “activity change, positive = activation” value was inactive: -3.74%. On to `Cc1ccc(/C=C(\C#N)C(=O)Nc2cc(C)ccc2C)cc1`, for which the “activity change, positive = activation” value is inactive: 24.2%.
